The source of these data is article PMC6276216.

Results are given in words; binding and its absence hold for the method and conditions named. In cells and extracts the contact can be indirect. Some entries that bind do so weakly or less than the wild type. Sequences can lack the tags named with a protein.

The experiment deals with T1, HaloTag-NPAS3 isoform 1 (human) (UniProt Q8IXF0).
T1 sequence: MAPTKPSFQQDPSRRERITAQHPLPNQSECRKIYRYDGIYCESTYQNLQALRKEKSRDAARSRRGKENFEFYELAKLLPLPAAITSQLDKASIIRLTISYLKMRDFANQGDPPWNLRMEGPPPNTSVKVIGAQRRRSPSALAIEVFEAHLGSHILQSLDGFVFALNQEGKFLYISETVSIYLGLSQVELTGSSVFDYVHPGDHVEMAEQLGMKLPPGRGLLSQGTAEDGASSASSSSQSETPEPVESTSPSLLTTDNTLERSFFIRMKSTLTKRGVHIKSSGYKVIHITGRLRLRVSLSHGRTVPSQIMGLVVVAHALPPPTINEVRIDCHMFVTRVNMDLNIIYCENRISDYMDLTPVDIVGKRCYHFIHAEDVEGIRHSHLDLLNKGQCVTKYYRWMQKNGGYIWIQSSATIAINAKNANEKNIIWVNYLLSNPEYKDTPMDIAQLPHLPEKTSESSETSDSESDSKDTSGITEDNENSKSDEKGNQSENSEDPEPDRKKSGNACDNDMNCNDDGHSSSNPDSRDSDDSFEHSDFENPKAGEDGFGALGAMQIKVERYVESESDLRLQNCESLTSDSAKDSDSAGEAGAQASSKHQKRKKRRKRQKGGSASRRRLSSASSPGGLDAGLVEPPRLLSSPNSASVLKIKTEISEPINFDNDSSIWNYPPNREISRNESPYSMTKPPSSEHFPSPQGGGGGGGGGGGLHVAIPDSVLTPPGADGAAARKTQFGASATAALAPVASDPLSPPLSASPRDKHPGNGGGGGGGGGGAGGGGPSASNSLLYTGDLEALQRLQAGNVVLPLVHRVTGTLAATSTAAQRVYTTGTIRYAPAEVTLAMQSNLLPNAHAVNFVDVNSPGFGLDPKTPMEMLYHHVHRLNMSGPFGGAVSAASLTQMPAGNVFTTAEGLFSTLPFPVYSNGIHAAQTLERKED
Briefly: pull-down; HaloTag Mammalian Pull-Down (Promega), reciprocal: HaloTag-NPAS3 covalently linked to the resin, ARNT as prey (co-expressed untagged isoform 1 or endogenous); lysates of transfected HEK 293T cells; western blot.

Turning to “ARNT isoform 1, untagged (from UniProt P27540-1 1-789)”, the binding entry is reported as “binds”.
